# Data from paper PMC4336329 (PLoS ONE, 2015).
# Out of some 310,000 compounds screened, about 2,200 (0.71%) showed an effect of 50% or more. Effects have a minus sign here. The list shows a part of the results.
# Target: human ether-à-go-go-related gene (hERG) potassium channel (human, UniProt Q12809)
# Experiment: primary screen, population patch clamp on CHO cells stably expressing hERG
# human ether-à-go-go-related gene (hERG) potassium channel, sequence (Q12809 whole entry, looked up): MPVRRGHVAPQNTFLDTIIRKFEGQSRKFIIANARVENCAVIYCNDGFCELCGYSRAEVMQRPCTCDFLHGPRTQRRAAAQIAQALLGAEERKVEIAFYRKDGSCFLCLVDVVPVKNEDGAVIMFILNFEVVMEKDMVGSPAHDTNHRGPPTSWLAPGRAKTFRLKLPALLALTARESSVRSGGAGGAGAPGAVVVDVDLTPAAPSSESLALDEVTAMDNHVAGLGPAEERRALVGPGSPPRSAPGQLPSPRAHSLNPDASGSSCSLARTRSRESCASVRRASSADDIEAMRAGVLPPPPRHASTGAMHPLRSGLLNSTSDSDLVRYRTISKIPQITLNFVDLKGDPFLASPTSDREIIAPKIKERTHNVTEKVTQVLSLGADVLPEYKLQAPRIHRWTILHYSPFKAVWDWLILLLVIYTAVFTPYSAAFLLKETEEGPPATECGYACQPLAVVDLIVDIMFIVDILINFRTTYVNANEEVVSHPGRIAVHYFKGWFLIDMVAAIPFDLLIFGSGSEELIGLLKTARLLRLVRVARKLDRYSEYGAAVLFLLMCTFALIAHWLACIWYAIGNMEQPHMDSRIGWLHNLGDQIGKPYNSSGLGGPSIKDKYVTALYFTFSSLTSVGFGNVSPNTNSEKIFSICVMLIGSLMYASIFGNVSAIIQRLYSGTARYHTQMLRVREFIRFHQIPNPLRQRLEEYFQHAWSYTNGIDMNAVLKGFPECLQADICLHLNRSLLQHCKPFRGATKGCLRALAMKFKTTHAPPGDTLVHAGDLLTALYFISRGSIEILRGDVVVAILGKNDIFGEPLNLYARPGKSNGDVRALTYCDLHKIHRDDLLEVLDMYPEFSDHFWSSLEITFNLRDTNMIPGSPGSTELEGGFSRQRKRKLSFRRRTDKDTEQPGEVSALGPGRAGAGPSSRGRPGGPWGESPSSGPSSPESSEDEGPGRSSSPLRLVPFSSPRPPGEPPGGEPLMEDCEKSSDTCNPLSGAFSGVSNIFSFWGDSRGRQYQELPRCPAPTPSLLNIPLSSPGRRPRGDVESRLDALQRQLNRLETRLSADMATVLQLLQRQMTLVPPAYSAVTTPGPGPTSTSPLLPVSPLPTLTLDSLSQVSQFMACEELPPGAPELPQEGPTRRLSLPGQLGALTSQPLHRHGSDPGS
row,Compound,"hERG current change (%, negative = inhibition) at 1uM [%]"
1,CCCC[C@H](CN[C@@H](CNC)[C@H](C)CC)NCCC12CCC(CC1)C2,14.1
2,CCS(=O)(=O)N1CCN(Cc2nc3ccccc3c(=O)[nH]2)CC1,4.91
3,COC(=O)C(C(=O)OC)C(C(=O)OC)C(C(=O)OC)C(=O)OC,2.29
4,COC(=O)N/N=C/c1cn(CCCOc2ccc(C)cc2)c2ccccc12,3.27
5,O=C(CCn1ccnc1)Nc1cc(Cl)ccc1O,13
6,CC1CC(C)CN(CCCNC(=O)C2CCC(=O)N2C2CCCC2)C1 (stereo not shown),11.8
7,CC(C(=O)Nc1ncc([N+](=O)[O-])s1)N1C(=O)c2ccccc2S1(=O)=O (stereo not shown),7.88
8,COc1cccc(C(=O)Nc2ccc(NC(=O)C3CC=CCC3C(=O)O)cc2)c1 (stereo not shown),17.4
9,COc1c(Br)cc(/C=N/n2c(-c3ccccc3)n[nH]c2=S)c(O)c1Br,20.7
10,CC(O)CSc1nc2c(c(=O)[nH]c(=O)n2C)n1Cc1ccccc1 (stereo not shown),-18.4
11,CCN(CC(=O)Nc1c(F)cccc1F)C(=O)C(C)SCc1nc2sc(C)c(C)c2c(=O)[nH]1 (stereo not shown),-10.3
12,Cc1ccc(Cl)cc1N1CCN(C(c2ccc(C#N)cc2)c2nnnn2C2CCCC2)CC1 (stereo not shown),11.7
13,CC(=O)N1c2ccc(S(=O)(=O)NCC3CCC(C(=O)Nc4cc(C)ccn4)CC3)cc2CC1C (stereo not shown),5.08
14,CC(/C=N/NC(=O)c1cc(-c2cccn2C)n[nH]1)=C\c1ccccc1,9.77
15,CCn1c(SCC(=O)NNC(=O)c2ccc(C)cc2)nnc1C(C)C,17.5
16,COc1cc(C#N)c(NC(=S)N2CCOCC2)cc1OC,13.5
17,Oc1[nH]c2ccc(Br)cc2c1N=Nc1nn[nH]n1,9.76
18,COC(=O)c1cc(C)nc(N)c1C#N,-1.72
19,CN(C)/C=C(/C(=O)c1ccc(Cl)c(Cl)c1)c1nnnn1-c1ccccc1,11.4
20,O=C(CCCOc1ccc(Cl)cc1Cl)N/N=C/c1ccccc1O,29.1

row,Compound,"hERG current change (%, negative = inhibition) at 1uM [%]"
1,CCCCCCCNC(=O)C1(CC2CC(c3ccccc3)=NO2)CCNCC1 (stereo not shown),-26.2
2,O=C(Nc1ccc2c(c1)OCCO2)c1ccccn1,13.3
3,COc1ccc(-c2nc(NC(C)=O)sc2-c2ccc(OC)cc2)cc1,17.6
4,COc1ccc(C(=O)Nc2ccc(O)cc2C(=O)O)cc1,16.6
5,COc1ccc(Cc2nnc(NC(=O)C3CC(=O)N(c4ccc(OC)cc4)C3)s2)cc1 (stereo not shown),11.7
6,O=C(O)CCCCC1CCSS1 (stereo not shown),6.98
7,COc1ccc(C(=O)Nc2ccc(NC(=O)C3CCCCC3)nc2)cc1,29.4
8,COc1ccccc1NC(=O)c1ccc2nc(C)sc2c1,8.56
9,Cc1cc(N2CCCCC2)nc2ccccc12,-3.55
10,O=C(c1ccccc1)c1coc2ccc(O)c(Cl)c12,-4.28
11,COc1ccccc1-c1nnc(SCC(=O)O)n1-c1ccccc1,5.66
12,Cc1cc(NCCOCCO)n2c(nc3ccccc32)c1C#N,7.03
13,CSc1ccccc1-n1nnnc1SCc1ccccc1,-17.1
14,CCc1ccc(OCc2nnc(SCC(=O)NC3CCCCC3)o2)cc1,14.6
15,COc1ccccc1CNC(=O)c1ccc(-c2ccccc2C(F)(F)F)o1,9.9
16,CC(C)Cc1ccccc1S(N)(=O)=O,10.3
17,Cc1cc2ncc(-c3ccc(Cl)cc3)c(N)n2n1,-2.52
18,COc1ccc(N(CC(=O)NCc2ccc(F)cc2)C(=O)c2snc(C(N)=O)c2N)cc1OC,14.2
19,Cc1cccc(N2CCN(C(=O)CCC(=O)N3Cc4ccccc4Oc4ncccc43)CC2)c1C,9.18
20,Cc1oc2cc3oc(=O)ccc3cc2c1C,11.6

row,Compound,"hERG current change (%, negative = inhibition) at 1uM [%]"
1,COCC(=O)Nc1ccc(C(N)=O)cc1,-3.76
2,Cc1ccc(C)c(NC(=O)CSc2nc3c(c(=O)n2C)SC(C)C3)c1 (stereo not shown),12
3,O=Cc1cn(-c2ccccc2)nc1-c1cc2cc(O)ccc2oc1=O,12
4,O=C(N/N=C/c1ccc2c(c1)OCO2)c1sc2cccc(Cl)c2c1Cl,5.71
5,COc1ccc2nc(C)cc(Nc3ccccc3O)c2c1.Cl,5.58
6,O=C(COc1ccc(S(=O)(=O)N2CCOCC2)cc1)Nc1ccccc1Cl,7.64
7,COc1ccc(CC(=O)Nc2cc(=O)n(C)c(=O)n2C)cc1OC,15.5
8,COC(=O)c1cc(NS(=O)(=O)c2ccc(NC(C)=O)cc2)cc(C(=O)OC)c1,2.46
9,Cc1cc(=O)oc2c(C)c(OC(C)C(=O)NC3CCN(Cc4ccccc4)CC3)ccc12 (stereo not shown),-2.18
10,CCOc1ccc2c(c1)sc(N)[n+]2Cc1cc(C)cc2cccnc12.[Br-],-56.2
11,CCN(CC)CCNC(=O)Cn1c(=O)c2cccn2c2ccc(F)cc21,12.5
12,CC(/C=N/NC(=O)COc1ccccc1C)=N\NC(=O)COc1ccccc1C,24.2
13,CCOc1ccc(NC(=O)C2C3C=CC4(O3)C2C(=O)N(Cc2cccnc2)C4C(=O)NC2CCCCC2)cc1 (stereo not shown),11.9
14,CC1(C)SC(=S)N(/N=C/c2ccccc2)C1N(O)C(=O)Nc1ccc([N+](=O)[O-])cc1 (stereo not shown),11.6
15,CCc1cccc(NC(=O)C2CCCN2C(=O)Nc2ccc(C)cc2)c1 (stereo not shown),11.1
16,COc1ccc(C(CNC(=O)c2cc3c(s2)CCCC3)N2CCOCC2)cc1 (stereo not shown),1.79
17,Cc1cccc(C)c1C(OCCN(C)C)C1CCCCC1.O=C(O)C(=O)O (stereo not shown),2.2
18,CCOC(=O)c1cccc(NC(=S)NC(=O)c2cccnc2)c1,9.06
